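All cell lines were grown in 96-well plates and treated with compound for 48 hours. The concentration for 50% growth inhibition is given as GI50. TGI: concentration producing complete growth inhibition.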 Numbered stars: 1 amine (or outer) side, 2 acyl side, 3 side chain; on linkers, the order of the positions; unused ones are H or OH. Bridge positions count the residues as written; N and C are the ends. Square brackets hold non-standard residues; d marks the D form. Peptide text beside a SMILES is read from it. * marks the point of attachment. ξ: configuration not given here. Phe(3,5-F2) = N[C@@H](Cc1cc(F)cc(F)c1)C(=O)O; ξThr(3S) = C[C@H](O[*:3])C(N[*:1])C(=O)[*:2]; X19 = C[C@H]1OCCN([*:1])[C@@H]1C(=O)[*:2]; Phe(3-F) = N[C@@H](Cc1cccc(F)c1)C(=O)O; Pro(4R-Me) = C[C@H]1CN[C@H](C(=O)O)C1; aThr = C[C@H](O)[C@H](N)C(=O)O; X18 = O=S(=O)(F)Oc1ccc(N*)cc1; Pip = O=C(O)[C@@H]1CCCCN1; X7 = CCc1ccc(N*)c(F)c1; CO = O=C([*:1])[*:2]
System: NCI-H322M lung
Experiment: NCI anticancer screen, dose series, 48 h

| Compound | GI50 [µM] | TGI [µM] |
| --- | --- | --- |
| COc1cc(OC)c(S(N)(=O)=O)cc1C(=O)/C=C/c1ccc(C)cc1 | 2.87 | 12 |
| CCc1ccc(NC(=O)N[C@@H](Cc2cccc(F)c2)C(=O)N[C@@H]2C(=O)N3CCC[C@H]3C(=O)N3CCCC[C@H]3C(=O)N[C@@H](C)C(=O)N3C[C@H](C)C[C@H]3C(=O)O[C@H]2C)c(F)c1 ({X7-CO}-[Phe(3-F)][aThr]P[Pip]A[Pro(4R-Me)]; ester 2-C) | 0.744 | 45.5 |
| O=C(NNc1nc2cc(F)ccc2n2c(CN3CCC(O)C3)ccc12)c1cnccn1 (stereo not given) | 0.387 | > 100 |
| C[C@@H]1C[C@H]2C(=O)O[C@@H](C)C(NC(=O)[C@H](Cc3cc(F)cc(F)c3)NC(=O)Nc3ccc(OS(=O)(=O)F)cc3)C(=O)N3CCC[C@H]3C(=O)N3CCO[C@H](C)[C@H]3C(=O)N[C@@H](CO)C(=O)N2C1 (stereo partly drawn) ({X18-CO}-[Phe(3,5-F2)][ξThr(3S)]P[X19]S[Pro(4R-Me)]; ester 2-C) | 5.41 | > 100 |
| C/C(=N/NC(N)=S)c1ccc(Nc2nc(SCC(C)C)nc(-c3ccc(F)cc3)c2C#N)cc1 | 2.22 | 25.4 |
